# Results reported in the supplement of paper PMC3334620.
# The full ranking holds about 33,000 sequences; the median of “E-score (-0.5 to 0.5)” is about -0.036, and the highest 2% start at about 0.37. The list shows a part of the results.
# Target: T1, Yer064c (UniProt P40041)
# T1 sequence: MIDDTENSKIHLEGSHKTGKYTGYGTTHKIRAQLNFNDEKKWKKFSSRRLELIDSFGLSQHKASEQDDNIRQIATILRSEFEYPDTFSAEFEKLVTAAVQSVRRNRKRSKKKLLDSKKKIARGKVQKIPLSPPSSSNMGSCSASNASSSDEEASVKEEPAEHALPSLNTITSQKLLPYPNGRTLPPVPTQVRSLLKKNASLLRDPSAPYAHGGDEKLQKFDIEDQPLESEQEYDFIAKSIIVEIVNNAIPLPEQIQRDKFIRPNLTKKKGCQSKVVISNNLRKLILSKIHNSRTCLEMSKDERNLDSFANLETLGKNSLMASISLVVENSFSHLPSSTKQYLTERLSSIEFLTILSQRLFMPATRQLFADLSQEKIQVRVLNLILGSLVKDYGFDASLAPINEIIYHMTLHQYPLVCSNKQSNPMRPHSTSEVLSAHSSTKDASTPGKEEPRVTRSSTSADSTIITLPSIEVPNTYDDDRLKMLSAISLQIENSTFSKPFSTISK
# Assay: PBM E-score (8-mer binding enrichment) (E-score (-0.5 to 0.5)); higher = stronger / more preferred TF binding; most listed sequences are background and not binding sites
# Conditions: protein concentration: 200 nM; construct: GST-full length
# Outline: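 PURExpress in vitro transcription/translation supplied GST-tagged yeast transcription factors, either full-length or DNA-binding domain. Applied at about 100-200 nM to universal all-10-mer Agilent arrays double-stranded by primer extension, the bound protein was detected with fluorescent anti-GST. E-scores, modified Wilcoxon-Mann-Whitney statistics, were given by the Universal PBM Analysis Suite to ungapped eight-base words pooled with their reverse complements after masliner normalisation.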
row,Sequence,PBM E-score
1,AAGGTTCC,-0.153
2,CCAAGTGA,0.0575
3,ATCGCACC,-0.163
4,GGCGTACC,-0.343
5,TTCGCGAA,0.2
6,CATAGATA,-0.101
7,CGGAAAGC,-0.189
8,ATCTGCCC,-0.187
9,AAACTTAG,0.00969
10,TCGATACA,0.00742
11,ACTAGCAC,0.0637
12,CCGGTGAC,0.198
13,AGTTGTAA,0.102
14,ATTTTATA,0.0869
15,CTCCGATA,-0.0168
16,AGCAATGG,-0.0883
17,GCTTCTAC,-0.109
18,AGGACAGA,-0.0647
19,GACCAGTC,0.234
20,ATGGTGAG,-0.0373
21,CTTGAATA,0.0464
22,CCTCCCAA,-0.336
23,CAAATTGC,-0.0349
24,GGAGGAGA,-0.225
25,GAACTAGA,0.0303

row,Sequence,PBM E-score
1,ACGCTGCT,-0.149
2,GCAAATAA,-0.0301
3,ATATGCTA,-0.0667
4,CGTCTCTA,-0.138
5,AACCTTCG,0.0794
6,CTGGCGAC,-0.104
7,AACCGTCA,-0.0983
8,GTACTCAC,0.387
9,TTGTCAAA,0.0143
10,TAGGTAGA,-0.0114
11,AAGTAAAG,0.0788
12,CCTTCAAA,0.0202
13,ATTCCCAG,0.125
14,CTGAGATA,0.0328
15,ACTGAGCT,-0.0605
16,AAAGACTT,0.294
17,GTCAATGA,0.281
18,AAAATGCG,-0.193
19,CAAGGCGC,-0.0787
20,GGGAAAGA,-0.0818
21,TAAAGATA,0.0837
22,GGGTGCAA,-0.174
23,CTTCACTA,-0.0581
24,TAGTGCCA,-0.174
25,ACCGAGGA,-0.138

row,Sequence,PBM E-score
1,ACGCTAGA,-0.083
2,AGTATGTA,-0.192
3,CCATACGA,-0.0639
4,ACAATCTG,-0.113
5,ATCAAGTA,0.0766
6,TAGTAAAA,0.15
7,TATCCTAA,0.042
8,AAGCAGTC,0.213
9,CGACTGTA,0.0408
10,ACACCGGC,-0.147
11,GAATTGCA,-0.148
12,CCAGCTCC,-0.194
13,ATACCTAC,-0.122
14,GATGACCC,0.249
15,ACTCGAAC,0.136
16,AGACTGCG,0.171
17,CTATGGAG,-0.0519
18,TATTCTGA,0.161
19,AAGTTTAC,0.0177
20,CTAGACGA,-0.0113
21,ATAGTTTA,0.0025
22,AGTACGGC,-0.0761
23,GCTTGAGA,-0.169
24,AGACTGGG,0.0785
25,ACACCGGG,-0.01

row,Sequence,PBM E-score
1,ATAAAGCA,-0.134
2,ATATCAAG,-0.011
3,CCCCTGAG,-0.017
4,AGATGTAA,-0.0473
5,CATACAGG,0.0371
6,ACTGAGGG,-0.13
7,CTATCATC,-0.0157
8,CGGTCCAA,-0.368
9,ATAGGAAG,0.0469
10,ATGCCAGG,-0.091
11,AGGAACTA,-0.122
12,CGTGATCA,0.221
13,AATCGTTA,0.00204
14,ATATGCCC,-0.171
15,TCCACGGA,-0.0782
16,GGCGCTGA,0.0434
17,ATCATGGC,0.205
18,ACATGTCG,-0.112
19,GGAGCATA,-0.196
20,GTTTTCAA,-0.0484
21,ACTTGGTC,0.0534
22,ACTATGGG,0.109
23,CACCGTTC,-0.153
24,CCGCCACG,-0.00786
25,AGTCGTCC,0.364

row,Sequence,PBM E-score
1,AAGCATAC,0.00069
2,ACTGCCAC,0.0332
3,AGTTCCTC,-0.21
4,CCAACCGG,-0.0681
5,ATAGACAC,0.0814
6,TGGACCAA,-0.147
7,GCCGATCA,0.0103
8,GATTCGAA,0.207
9,ACTAATTA,0.308
10,AGATACAC,-0.0582
11,ACCGGGCT,-0.143
12,CATCACAC,0.0825
13,AGATTGCT,-0.193
14,CACCATCC,-0.125
15,GAACAATC,0.109
16,AAATCAGC,0.227
17,AGTGATGC,-0.128
18,GTTGAATA,0.0427
19,CTTCGCCC,-0.24
20,CATGCAGG,-0.152
21,ATATCCAC,-0.0172
22,AAATGAGC,0.058
23,AGGCGTAT,0.0624
24,ATTCGGCG,-0.0132
25,CGTACCTC,-0.0258

row,Sequence,PBM E-score
1,GGCGAACA,-0.0803
2,CAACGCAA,0.0568
3,GCTAACAC,0.11
4,CCCGGCGG,-0.182
5,CGTCGTCC,-0.144
6,ACATGGGG,-0.139
7,CCCATAAG,-0.0919
8,AATGGCTA,0.26
9,ACCCTAGG,-0.116
10,AGCCTCCT,0.00409
11,CCAAAAGA,0.0212
12,GGGTATGA,0.241
13,CACCGACG,0.00175
14,GTTAGCAA,0.0327
15,AGGCGAGC,-0.253
16,TCGTGAGA,0.0601
17,AACCAGGC,-0.0844
18,CTCGCACC,0.00496
19,AAAGGCGC,-0.186
20,TCAAGTCA,0.379
21,GTCCGGCA,-0.0202
22,AAGGCGAA,-0.0442
23,ACGTTTTC,-0.169
24,AAGAATTC,-0.135
25,GTCTGAAC,-0.0604

row,Sequence,PBM E-score
1,ATTAAAAA,0.2
2,AGGCAACC,-0.0719
3,CCAGTGAC,0.168
4,ACCGGCAT,-0.136
5,ATATGAAC,0.0999
6,GTCACGGA,0.158
7,CAGATTGG,-0.216
8,ATATGGGG,-0.0837
9,AAGAAGTA,-0.0912
10,AAGATACA,-0.0401
11,ATGGGGGC,-0.416
12,CAGTCCCC,-0.225
13,GGTCTGTA,-0.117
14,AGAGAGCG,-0.295
15,CACCAAGC,-0.0245
16,CACAAATG,0.111
17,ACTAGACG,0.128
18,CAACGGAA,-0.104
19,GCGGACCC,-0.146
20,GTACGGCA,-0.147
21,GCTAGTGA,0.135
22,ACCCTCAT,-0.0522
